# Test results reported in US20080292704A1 (published 2008).
# Target: T1, HSA1R4 (human, UniProt P02768 25-221)
# T1 construct: range 1-197; also called R4 ligand; HCH2 polymer
# Assay: ELISA on coated recombinant receptor (4 µg/mL), HRPO-Protein G detection
binder,measurement,value
"recombinant FcγRIIIa-158V ligand binding domain, 6xHis tagged (receptor) not shown",binding result,binds
